# Experimental data published in the supplement of paper PMC8728848.
# The other results are listed elsewhere or left out.
# B1: DBA (Dolichos biflorus) (protein)
# chain: ANIQSFSFKNFNSPSFILQGDATVSSGKLQLTKVKENGFPLRFPSGRAFYSSPIQIYDKFTGAVASWATSFTVKISAPSKASFADGIAFALVPVGSEPRRNGGYLGVFDSDVYNNSAQTVAVEFDTLSNSGWDPSMKHIGIDVNSIKSIATVSWDLANGENAEILITYNAATSLLVVSLVHPSRRTSYILSERVDITNELPEYVGVGFSATTGLSEGYIETHDVLSWSFASRLPDDSTAEPLDLARYLVRNVL
# Assays:
# Assay in all cases: glycan array binding signal (z-score within array); higher = stronger binding
# Conditions in all cases: glycan notation: IUPAC condensed, linker removed
# [1] = target: Gal(a1-3)Gal(b1-4)[Fuc(a1-3)]GlcNAc
# Procedure, shortened: (§1)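 The binding signal is a Z-score computed within each array and averaged over linkers. Arrays of the same protein sequence at different concentrations or buffers were also averaged together. Data originate from 3228 arrays in the Consortium for Functional Glycomics database, kept only where the protein sequence was available.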
# [2] = target: Gal(a1-3)Gal(b1-4)[Fuc(a1-3)]GlcNAc(b1-2)Man(a1-3)[Gal(a1-3)Gal(b1-4)[Fuc(a1-3)]GlcNAc(b1-2)Man(a1-6)]Man(b1-4)GlcNAc(b1-4)GlcNAc
# Procedure, shortened: as §1
# Gal(a1-3)GalNAc = target: Gal(a1-3)GalNAc
# Procedure, shortened: as §1
# [3] = target: Gal(a1-3)[Gal(a1-4)]Gal(b1-4)GlcNAc
# Procedure, shortened: as §1
# [4] = target: Gal(a1-4)Gal(b1-3)GlcNAc(b1-2)Man(a1-3)[Gal(a1-4)Gal(b1-3)GlcNAc(b1-2)Man(a1-6)]Man(b1-4)GlcNAc(b1-4)GlcNAc
# Procedure, shortened: as §1
# Gal(a1-4)Gal(b1-4)Glc = target: Gal(a1-4)Gal(b1-4)Glc
# Procedure, shortened: as §1
# Gal(a1-4)Gal(b1-4)GlcNAc = target: Gal(a1-4)Gal(b1-4)GlcNAc
# Procedure, shortened: as §1
# [5] = target: Gal(a1-4)Gal(b1-4)GlcNAc(b1-2)Man(a1-3)[Gal(a1-4)Gal(b1-4)GlcNAc(b1-2)Man(a1-6)]Man(b1-4)GlcNAc(b1-4)GlcNAc
# Procedure, shortened: as §1
# [6] = target: Gal(a1-4)Gal(b1-4)GlcNAc(b1-3)Gal(b1-4)Glc
# Procedure, shortened: as §1
# Gal(a1-4)GlcNAc = target: Gal(a1-4)GlcNAc
# Procedure, shortened: as §1
# Gal(a1-6)Glc = target: Gal(a1-6)Glc
# Procedure, shortened: as §1
# Gal(b1-2)Gal = target: Gal(b1-2)Gal
# Procedure, shortened: as §1
# Gal(b1-3)Gal = target: Gal(b1-3)Gal
# Procedure, shortened: as §1
# Gal(b1-3)Gal(b1-4)GlcNAc = target: Gal(b1-3)Gal(b1-4)GlcNAc
# Procedure, shortened: as §1
# Gal(b1-3)GalNAc = target: Gal(b1-3)GalNAc
# Procedure, shortened: as §1
# [7] = target: Gal(b1-3)GalNAc(a1-3)[Fuc(a1-2)]Gal(b1-4)Glc
# Procedure, shortened: as §1
# [8] = target: Gal(b1-3)GalNAc(a1-3)[Fuc(a1-2)]Gal(b1-4)GlcNAc
# Procedure, shortened: as §1
# Gal(b1-3)GalNAc(b1-3)Gal = target: Gal(b1-3)GalNAc(b1-3)Gal
# Procedure, shortened: as §1
# [9] = target: Gal(b1-3)GalNAc(b1-3)Gal(a1-4)Gal(b1-4)Glc
# Procedure, shortened: as §1
# [10] = target: Gal(b1-3)GalNAc(b1-4)Gal(b1-4)Glc
# Procedure, shortened: as §1
# [11] = target: Gal(b1-3)GalNAc(b1-4)[Neu5Ac(a2-3)]Gal(b1-4)Glc
# Procedure, shortened: as §1
# Gal(b1-3)GlcNAc = target: Gal(b1-3)GlcNAc
# Procedure, shortened: as §1
# [12] = target: Gal(b1-3)GlcNAc(a1-3)Gal(b1-4)GlcNAc
# Procedure, shortened: as §1
# [13] = target: Gal(b1-3)GlcNAc(a1-6)Gal(b1-4)GlcNAc
# Procedure, shortened: as §1
# Gal(b1-3)GlcNAc(b1-2)Man = target: Gal(b1-3)GlcNAc(b1-2)Man
# Procedure, shortened: as §1
# [14] = target: Gal(b1-3)GlcNAc(b1-2)Man(a1-3)[Gal(b1-3)GlcNAc(b1-2)Man(a1-6)]Man(b1-4)GlcNAc(b1-4)GlcNAc
# Procedure, shortened: as §1
# [15] = target: Gal(b1-3)GlcNAc(b1-2)Man(a1-3)[Gal(b1-3)GlcNAc(b1-2)Man(a1-6)]Man(b1-4)GlcNAc(b1-4)[Fuc(a1-6)]GlcNAc
# Procedure, shortened: as §1
# [16] = target: Gal(b1-3)GlcNAc(b1-2)Man(a1-3)[GlcNAc(b1-4)][Gal(b1-3)GlcNAc(b1-2)Man(a1-6)]Man(b1-4)GlcNAc(b1-4)GlcNAc
# Procedure, shortened: as §1
# [17] = target: Gal(b1-3)GlcNAc(b1-2)[Gal(b1-3)GlcNAc(b1-6)]Man(a1-6)[Gal(b1-3)GlcNAc(b1-2)Man(a1-3)]Man(b1-4)GlcNAc(b1-4)GlcNAc
# Procedure, shortened: as §1
# [18] = target: Gal(b1-3)GlcNAc(b1-3)Gal(b1-3)GlcNAc
# Procedure, shortened: as §1
# [19] = target: Gal(b1-3)GlcNAc(b1-3)Gal(b1-4)Glc
# Procedure, shortened: as §1
# [20] = target: Gal(b1-3)GlcNAc(b1-3)Gal(b1-4)GlcNAc
# Procedure, shortened: as §1
# [21] = target: Gal(b1-3)GlcNAc(b1-3)Gal(b1-4)GlcNAc(b1-2)Man(a1-3)[Gal(b1-3)GlcNAc(b1-3)Gal(b1-4)GlcNAc(b1-2)Man(a1-6)]Man(b1-4)GlcNAc(b1-4)GlcNAc
# Procedure, shortened: as §1
# [22] = target: Gal(b1-3)GlcNAc(b1-3)Gal(b1-4)GlcNAc(b1-2)[Gal(b1-3)GlcNAc(b1-3)Gal(b1-4)GlcNAc(b1-6)]Man(a1-6)[Gal(b1-3)GlcNAc(b1-3)Gal(b1-4)GlcNAc(b1-2)Man(a1-3)]Man(b1-4)GlcNAc(b1-4)[Fuc(a1-6)]GlcNAc
# Procedure, shortened: as §1
# [23] = target: Gal(b1-3)GlcNAc(b1-3)Gal(b1-4)GlcNAc(b1-3)Gal(b1-4)GlcNAc(b1-2)[Gal(b1-3)GlcNAc(b1-3)Gal(b1-4)GlcNAc(b1-3)Gal(b1-4)GlcNAc(b1-6)]Man(a1-6)[Gal(b1-3)GlcNAc(b1-3)Gal(b1-4)GlcNAc(b1-3)Gal(b1-4)GlcNAc(b1-2)Man(a1-3)]Man(b1-4)GlcNAc(b1-4)[Fuc(a1-6)]GlcNAc
# Procedure, shortened: as §1
# [24] = target: Gal(b1-3)GlcNAc(b1-3)Gal(b1-4)GlcNAc(b1-6)[Gal(b1-3)GlcNAc(b1-3)]Gal(b1-4)Glc
# Procedure, shortened: as §1
# [25] = target: Gal(b1-3)GlcNAc(b1-3)Gal(b1-4)[Fuc(a1-3)]GlcNAc
# Procedure, shortened: as §1
# [26] = target: Gal(b1-3)GlcNAc(b1-3)Gal(b1-4)[Fuc(a1-3)]GlcNAc(b1-6)[Gal(b1-3)GlcNAc(b1-3)]Gal(b1-4)Glc
# Procedure, shortened: as §1
binder,measurement,setting,value
B1,glycan array binding signal (z-score),[1],-0.133
same,glycan array binding signal (z-score),[2],-0.104
same,glycan array binding signal (z-score),Gal(a1-3)GalNAc,-0.103
same,glycan array binding signal (z-score),[3],-0.075
same,glycan array binding signal (z-score),[4],-0.059
same,glycan array binding signal (z-score),Gal(a1-4)Gal(b1-4)Glc,-0.067
same,glycan array binding signal (z-score),Gal(a1-4)Gal(b1-4)GlcNAc,-0.115
same,glycan array binding signal (z-score),[5],-0.041
same,glycan array binding signal (z-score),[6],-0.118
same,glycan array binding signal (z-score),Gal(a1-4)GlcNAc,-0.126
same,glycan array binding signal (z-score),Gal(a1-6)Glc,-0.132
same,glycan array binding signal (z-score),Gal(b1-2)Gal,-0.113
same,glycan array binding signal (z-score),Gal(b1-3)Gal,-0.143
same,glycan array binding signal (z-score),Gal(b1-3)Gal(b1-4)GlcNAc,-0.119
same,glycan array binding signal (z-score),Gal(b1-3)GalNAc,-0.108
same,glycan array binding signal (z-score),[7],-0.111
same,glycan array binding signal (z-score),[8],-0.079
same,glycan array binding signal (z-score),Gal(b1-3)GalNAc(b1-3)Gal,-0.131
same,glycan array binding signal (z-score),[9],-0.115
same,glycan array binding signal (z-score),[10],-0.098
same,glycan array binding signal (z-score),[11],-0.13
same,glycan array binding signal (z-score),Gal(b1-3)GlcNAc,-0.126
same,glycan array binding signal (z-score),[12],-0.178
same,glycan array binding signal (z-score),[13],-0.113
same,glycan array binding signal (z-score),Gal(b1-3)GlcNAc(b1-2)Man,-0.095
same,glycan array binding signal (z-score),[14],-0.068
same,glycan array binding signal (z-score),[15],-0.073
same,glycan array binding signal (z-score),[16],-0.073
same,glycan array binding signal (z-score),[17],-0.089
same,glycan array binding signal (z-score),[18],-0.115
same,glycan array binding signal (z-score),[19],-0.135
same,glycan array binding signal (z-score),[20],-0.086
same,glycan array binding signal (z-score),[21],-0.1
same,glycan array binding signal (z-score),[22],-0.106
same,glycan array binding signal (z-score),[23],0.071
same,glycan array binding signal (z-score),[24],-0.116
same,glycan array binding signal (z-score),[25],-0.107
same,glycan array binding signal (z-score),[26],-0.1
